# In PMC12136788:
# The list shows a part of the results.
# T1: UNK ZnF1-3 (human, UniProt Q9C0B0 31-174)
# T1 sequence: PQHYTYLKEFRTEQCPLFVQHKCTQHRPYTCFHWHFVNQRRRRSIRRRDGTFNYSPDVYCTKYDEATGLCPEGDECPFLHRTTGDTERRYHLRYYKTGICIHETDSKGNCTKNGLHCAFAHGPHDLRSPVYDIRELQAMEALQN
# B1: chr14:21833301:21833302:-_ENSG00000092201_ENST00000216297|hu_hu|motif|central (ssRNA)
# RNA: GGGAGUUCUACAGUCCGACGAUCAUUGAUGCUGAAAACCAUUCCUUUCUUCAGUUUGUAUUGAUUUUUGCUAUUGAUUACGGGGGAGCCUUCACGGAAUUCAAUUCCCAUCCCAAACCCUAGGUUUUUGGUAAUUUUGUUCAGCAACAGAGGAUUGAGCAUCA
# B2: chr4:110384322:110384323:+_ENSG00000138802_ENST00000265175|hu_hu|motif|central (ssRNA)
# RNA: GGGAGUUCUACAGUCCGACGAUCGUAUGGUUGGGAGGCACUCGUAUGCAAAUGGGAUGCUGACGAUGCAGCACCUUGGAAAGAUCCGGGAGUGGAUCCCACAAUAUGAGGGGCAGGAGGACCCCUGCUGUACAACUGCUGUGCCAACAGAGGAUUGAGCAUCA
# B3: chr12:96259795:96259796:+_ENSG00000139343_ENST00000266735|hu_mus|motif|central (ssRNA)
# RNA: GGGAGUUCUACAGUCCGACGAUCGAGGACAUUAUUACACCUUAUUAGAACUUCGCCCAGAUGUCCAGACAGCGCCCCAUCGGUGUACUCUUCUGUAUUUGCAAGCUGCAUGUUCAUGUAGCCAUCCACGGAGACCAGGUAGCCCAACAGAGGAUUGAGCAUCA
# B4: chr1:163117127:163117128:-_ENSG00000143248_ENST00000313961|hu_mus|hu_hu_hu_mus_False|68_68 (ssRNA)
# RNA: GGGAGUUCUACAGUCCGACGAUCUGCUACAAAGGAUGUAACUCAACUCACAGGGCAACUUUUGGAAGCCUGGCUAAAUGACUACUUGAUUAGCUCCUUAUAAAAUUCAGAGCGCACAAAGCGGGGCAGAGAAUCCUUCUCCAUCAACAGAGGAUUGAGCAUCA
# B5: chrX:20248820:20248821:+_ENSMUSG00000001924_ENSMUST00000001989|mus_mus|mus_mus_mus_hu_True|58_108 (ssRNA)
# RNA: GGGAGUUCUACAGUCCGACGAUCGGCAAAGUCAGUCACCACAAAGUCAGGUUCUGCCAGUGAGGCCACCAAGGAUUUAAAACUAAUCUUCUUAGGUACUUUGACCUGACUGACGAUGCCUCCACGGAUGUAGUCGGAGAAGUUCAACAGAGGAUUGAGCAUCA
# B6: chr1:168153195:168153196:+_ENSG00000143155_ENST00000367833|hu_hu|FALSE|FALSE (ssRNA)
# RNA: GGGAGUUCUACAGUCCGACGAUCUAAAACGUUGUCUCCAAACAUCAUUUCAGGGAGAGAUGGCAUAUGUAAUUCAUCGGCUAAUUUCUCCACAUCCGCCGACUUCAUGAUGUGGGUCUUGGACGCCGUCAGCUUCCAGGGCCCCAACAGAGGAUUGAGCAUCA
# B7: 73116076_73116196_2691_3pUTR_ENSG00000054965_ENST00000064778|human|control|control (ssRNA)
# RNA: GGGAGUUCUACAGUCCGACGAUCCUCUUCUCCCAGAUGAGCCUGUCUCCUGGGCCUCAUCCUCAUUCUCCUCUCCUGAUGACUCCCACUGUCUUCCUCCUCUUCCUCUCCUCUCGGGAUGAGGGGCUACUGUCCUAAAAGCAUCAACAGAGGAUUGAGCAUCA
# B8: chr14:89305849:89305850:+_ENSG00000165533_ENST00000346301|hu_mus|FALSE|FALSE (ssRNA)
# RNA: GGGAGUUCUACAGUCCGACGAUCAGCAUUUUCAUCCAGGAUCAUUUCAGCAAUUCCUUCCUGGUCCACAUCAAUUUCAUCUAUGUACACCAUCUCUGUCAGCGCCCGUGCUUUCAAAAUCCAAGCCGCCUGAUCAUAAGGGGACAACAGAGGAUUGAGCAUCA
# B9: 102142660_102142780_3167_3pUTR_ENSMUSG00000027189_ENSMUST00000102573|mouse|control|control (ssRNA)
# RNA: GGGAGUUCUACAGUCCGACGAUCUGAUUACUGAGAAAGACAAGACAAGCUUCCAAACUGUCAAGUCUUUUCAAUCUUGUGAUAGUUUACACUCUUUCUACAGUGGCCCUUCUUUUAAAAUUUUGGCAGAACAGGAUAUCACUGCAACAGAGGAUUGAGCAUCA
# B10: chr16:56712917:56712918:-_ENSMUSG00000022757_ENSMUST00000065515|mus_mus|motif|central (ssRNA)
# RNA: GGGAGUUCUACAGUCCGACGAUCAUAAUCAGCUUCCCACUUAGGUCCAACUGUCCGUUCAUUGUGGAGUCCAGGAUGCUCGGUAUAUACAACUCUAGGGGAAAAAAACCCGCUUGCCGAGGCCGUCCACCUCAGCUGACCCGGCAACAGAGGAUUGAGCAUCA
# B11: chr4:45007048:45007049:-_ENSMUSG00000049657_ENSMUST00000055028|mus_mus|motif|central (ssRNA)
# RNA: GGGAGUUCUACAGUCCGACGAUCGCUCUGACUUGCACUGAAAUUACUCCCCCUGCUCUUGUUGAGAAAAUUGGAAAUACGGAAAGAGGUCUUAUGUUCUAGAUUAUUCGUGACUUCCAAGAUGUGGAUGUCCCCGACCCUGUCCAACAGAGGAUUGAGCAUCA
# B12: chr7:150775722:150775723:-_ENSG00000164896_ENST00000297532|hu_hu|FALSE|FALSE (ssRNA)
# RNA: GGGAGUUCUACAGUCCGACGAUCUUCCUGAACCACCAGGAAGUGGGCAAUGGCUUCCAGAAGCUGGGGCUCCCGCAACCGGUGCCGGGCCAGGUGCUGGGCCAGGAGCACCAUCACGUGGGGAGUCAGUUCCUCUGGCCUUGCCAACAGAGGAUUGAGCAUCA
# B13: chr3:71021771:71021772:-_ENSG00000114861_ENST00000475937|hu_hu|motif|central (ssRNA)
# RNA: GGGAGUUCUACAGUCCGACGAUCCACUGUCCAUACUGCCCCUUUAACGUUUUCUACUCGCACAAAACACUUGUGAAGACGGAGAUUAUGACGCACUGCAUUCUUCCACGUGGCCGCGUUGCGUCGGAAGUAAGCAAACAUUCGCAACAGAGGAUUGAGCAUCA
# B14: chr7:140404665:140404666:+_ENSG00000090266_ENST00000247866|hu_hu|hu_hu_hu_mus_False|88_98 (ssRNA)
# RNA: GGGAGUUCUACAGUCCGACGAUCUGCUCCUACUCGUAGGCUGAGUCUACACCUUCAGUCCUCGUCAUCAGGAGGGAUUCCCAGUUCUUCAUCUGUCCACUGUGAAGGAUCUGGAUAUGAAAAGUGACCCAGCACAGCAUCCGACAACAGAGGAUUGAGCAUCA
# Target: T1, UNK ZnF1-3
# Experiment: nsRBNS (natural sequence RNA bind-n-seq); RBNS binding buffer (assumed for nsRBNS): 25 mM Tris pH 7.5, 150 mM KCl, 3 mM MgCl2, 0.01% Triton X-100, 500 ug/ml BSA, 20 U/ml SUPERase-In, 4 C; UNK is unkempt and MSI1 is Musashi-1; names of the RNAs are library labels; protein concentration not given here; high values mean tight binding
row,Binder,binding signal [enrichment R]
1,B1,0.763
2,B2,0.937
3,B3,0.83
4,B4,1.15
5,B5,0.927
6,B6,0.513
7,B7,0.676
8,B8,1.96
9,B9,1.06
10,B10,0.998
11,B11,0.948
12,B12,0.841
13,B13,1.01
14,B14,0.799
